{
  "source": "the antibiotic and cytotoxicity screens of Wong et al. (2023)",
  "note": "This is one part of the list.",
  "data": [
    {"tested_on": "HepG2", "experiment": "cytotoxicity call (relative viability < 0.9)", "conditions": "10 µM", "values": [
      {"smiles": "COCCOC(=O)N1C(=O)[C@@]2(c3cc(C#CCCO)ccc31)[C@H](c1ccc(O)cc1)N1[C@H](c3ccccc3)[C@H](c3ccccc3)OC(=O)[C@H]1[C@@H]2C(=O)N1CCc2cc(OC)c(OC)cc2C1", "cytotoxicity call": "inactive"},
      {"smiles": "C[C@@H]1CN([C@H](C)CO)C(=O)c2cc(C#CC3(O)CCCC3)cnc2O[C@@H]1CN(C)C(=O)Cc1cccnc1", "cytotoxicity call": "inactive"},
      {"smiles": "CO[C@@H](CN(C)S(=O)(=O)c1ccc(Cl)cc1)[C@@H](C)CN([C@@H](C)CO)S(=O)(=O)c1cccc(Cl)c1", "cytotoxicity call": "inactive"},
      {"smiles": "Cc1ccc(S(=O)(=O)N(C)C[C@H]2OCCCC[C@H](C)Oc3ccc(NC(=O)Nc4ccccc4)cc3C(=O)N([C@H](C)CO)C[C@@H]2C)cc1", "cytotoxicity call": "inactive"},
      {"smiles": "COc1ccc(NC(=O)N(C)C[C@H]2OCCCC[C@@H](C)Oc3ccc(NS(=O)(=O)c4ccc(Cl)cc4)cc3C(=O)N([C@H](C)CO)C[C@H]2C)cc1", "cytotoxicity call": "inactive"},
      {"smiles": "COc1cccc(-c2ccc3c(c2)O[C@H](CN(C)C(=O)C2CCC2)[C@@H](C)CN([C@@H](C)CO)S3(=O)=O)c1", "cytotoxicity call": "inactive"},
      {"smiles": "C[C@@H]1CN([C@H](C)CO)C(=O)c2cc(NC(=O)Cn3cnnn3)ccc2O[C@H]1CN(C)C(=O)Nc1ccc2c(c1)OCO2", "cytotoxicity call": "inactive"},
      {"smiles": "N#CCC(=O)N1CCCCC1", "cytotoxicity call": "inactive"},
      {"smiles": "COc1ccc(NC(=O)Nc2ccc3c(c2)C(=O)N([C@@H](C)CO)C[C@H](C)[C@H](CN(C)CC2CCCCC2)OCCCC[C@@H](C)O3)cc1", "cytotoxicity call": "inactive"},
      {"smiles": "C=CCC[C@H](Cc1ccc(F)cc1)C(=O)OC[C@@H](Cc1c[nH]c2ccccc12)NC(=O)[C@H](CC=C)CC(=O)N(CCO)Cc1ccccc1", "cytotoxicity call": "active"},
      {"smiles": "C[C@@H]1CCCCO[C@@H](CN(C)C(=O)c2ccncc2)[C@H](C)CN([C@H](C)CO)C(=O)c2cc(NS(C)(=O)=O)ccc2O1", "cytotoxicity call": "inactive"},
      {"smiles": "C[C@@H]1CCCCO[C@@H](CN(C)C(=O)CCC(F)(F)F)[C@@H](C)CN([C@@H](C)CO)C(=O)c2cc(NC(=O)Cc3ccccc3)ccc2O1", "cytotoxicity call": "inactive"},
      {"smiles": "CN(C)c1ccc(O)c2c1CC1CC3C(N(C)C)C(O)=C(C(N)=O)C(=O)C3(O)C(O)=C1C2=O.Cl", "note": "(stereo not given)", "cytotoxicity call": "inactive"},
      {"smiles": "CC(=O)N1CCC2(CCCN2)CC1", "cytotoxicity call": "inactive"},
      {"smiles": "COc1ccc(S(=O)(=O)N2C[C@@H](O)COC[C@@H]3O[C@@H](CC(=O)N[C@H]4CCN(Cc5ccccc5)C4)CC[C@H]32)cc1", "cytotoxicity call": "inactive"},
      {"smiles": "C[C@H]1CN([C@@H](C)CO)C(=O)c2cccc(NC(=O)C3CCCCC3)c2O[C@@H]1CN(C)Cc1ccc(-c2ccccc2)cc1", "cytotoxicity call": "inactive"},
      {"smiles": "COc1nn(C)cc1C(=O)N1CCN(C)CC1", "cytotoxicity call": "inactive"},
      {"smiles": "O=c1cc(-c2cc(O)c(O)c(O)c2)oc2cc(O)cc(O)c12", "cytotoxicity call": "inactive"},
      {"smiles": "CCCCCS(=O)(=O)CCCCCCCCCCn1c(-c2ccc(O)cc2)c(C)c2cc(O)ccc21", "cytotoxicity call": "active"},
      {"smiles": "C[n+]1ccc(CCCO)cc1", "cytotoxicity call": "inactive"},
      {"smiles": "Cc1ccc(S(=O)(=O)N[C@H]2CC[C@H](CCNC(=O)CN3CCOCC3)O[C@@H]2CO)cc1", "cytotoxicity call": "inactive"},
      {"smiles": "C[C@H]1CN([C@@H](C)CO)C(=O)c2cc(NC(=O)Cc3cn(C)c4ccccc34)ccc2O[C@@H]1CN(C)C(=O)Nc1ccc(C(F)(F)F)cc1", "cytotoxicity call": "active"},
      {"smiles": "C[C@@H]1CN([C@@H](C)CO)C(=O)Cc2cc(NC(=O)Cn3cnnn3)ccc2O[C@H]1CN(C)S(C)(=O)=O", "cytotoxicity call": "inactive"},
      {"smiles": "Cc1noc(C)c1NC(=O)Nc1ccc2c(c1)CC(=O)N([C@@H](C)CO)C[C@@H](C)[C@@H](CN(C)Cc1ccc(-c3ccccc3)cc1)O2", "cytotoxicity call": "active"},
      {"smiles": "C[C@H](CO)N1C[C@H](C)[C@@H](CN(C)Cc2ccc(-c3ccccc3)cc2)Oc2c(NC(=O)Nc3ccc4c(c3)OCO4)cccc2C1=O", "cytotoxicity call": "inactive"},
      {"smiles": "Cc1ccc(S(=O)(=O)Nc2ccc3c(c2)C(=O)N([C@@H](C)CO)C[C@@H](C)[C@H](CN(C)C(=O)Nc2c(C)noc2C)OCCCC[C@H](C)O3)cc1", "cytotoxicity call": "inactive"},
      {"smiles": "C[C@@H]1CN([C@H](C)CO)S(=O)(=O)c2ccc(C#CCN(C)C)cc2O[C@H]1CN(C)Cc1ccncc1", "cytotoxicity call": "inactive"},
      {"smiles": "CCS(=O)(=O)N1C[C@]2(CCN(CC2)C(=O)NC2CCCC2)c2c(n(c3cc(ccc23)OC)C)[C@@H]1CO", "cytotoxicity call": "inactive"},
      {"smiles": "COC(=O)C1=C(C)NC(C)=C(C(=O)OCCCN2CCC(c3ccccc3)(c3ccccc3)CC2)[C@@H]1c1cccc([N+](=O)[O-])c1", "cytotoxicity call": "active"},
      {"smiles": "Cc1cc(CC(=O)O)n(C)c1C(=O)c1ccc(Cl)cc1", "cytotoxicity call": "inactive"},
      {"smiles": "C[C@H]1CN([C@@H](C)CO)C(=O)c2cccc(NS(=O)(=O)c3ccc(Cl)cc3)c2O[C@@H]1CN(C)Cc1ccc(-c2ccccc2)cc1", "cytotoxicity call": "inactive"},
      {"smiles": "C[C@@H]1CCCCO[C@@H](CN(C)Cc2ccc3c(c2)OCO3)[C@H](C)CN([C@@H](C)CO)C(=O)c2cc(NC(=O)NC3CCCCC3)ccc2O1", "cytotoxicity call": "inactive"},
      {"smiles": "COc1nonc1NC(C)=O", "cytotoxicity call": "inactive"},
      {"smiles": "C[C@@H]1CCCCO[C@@H](CN(C)S(=O)(=O)c2cn(C)cn2)[C@H](C)CN([C@H](C)CO)C(=O)c2cc(NS(=O)(=O)c3ccc(F)cc3)ccc2O1", "cytotoxicity call": "inactive"},
      {"smiles": "Cc1cc(C(=O)Nc2cccc3c2O[C@H](CN(C)S(=O)(=O)c2ccc(F)cc2)[C@H](C)CN([C@@H](C)CO)C3=O)n(C)n1", "cytotoxicity call": "inactive"},
      {"smiles": "O=C(C1=C[C@@H](c2csc3ccccc23)C[C@@H](OCc2ccc(CO)cc2)O1)N1CCN(Cc2ccccc2)CC1", "cytotoxicity call": "inactive"},
      {"smiles": "C[C@H]1CN([C@@H](C)CO)C(=O)c2cc(C#CC3CCCCC3)cnc2O[C@@H]1CN(C)C(=O)c1ccncc1", "cytotoxicity call": "inactive"},
      {"smiles": "CCC(C=CC(C)C1CCC2C3CCC4=CC(=O)CCC4(C)C3CCC12C)C(C)C", "note": "(stereo not given)", "cytotoxicity call": "inactive"},
      {"smiles": "C[C@@H]1CCCCO[C@H](CN(C)S(=O)(=O)c2cn(C)cn2)[C@H](C)CN([C@@H](C)CO)C(=O)c2cc(N(C)C)ccc2O1", "cytotoxicity call": "inactive"},
      {"smiles": "COc1ccc(NC(=O)N(C)C[C@@H]2OCCCC[C@H](C)Oc3ccc(NS(=O)(=O)c4ccc(F)cc4)cc3C(=O)N([C@H](C)CO)C[C@@H]2C)cc1", "cytotoxicity call": "inactive"}
    ]}
  ]
}
